Reference: article PMC7819943, “Rice protein-binding microarrays: a tool to detect cis-acting elements near promoter regions in rice”
The other results are listed elsewhere or left out.

Each sequence was assayed against T1, OsWOX13 (Oryza sativa, UniProt Q5QMM3 1-267) (assay: protein-binding microarray (RPBM); PBS, 2% BSA, 51.3 ng/ul salmon testes DNA, 50 uM zinc acetate, 200 nM TF, 25 C, 1 h; high values mean tight binding). Conditions: protein: recombinant; tags: N-terminal polyhistidine and DsRed monomer fusion (pET32a); label: CyDye5-dUTP incorporated in the synthesized complementary strand; 3' TTTTT single-stranded linker to array surface; dsDNA, one strand shown.
T1 sequence: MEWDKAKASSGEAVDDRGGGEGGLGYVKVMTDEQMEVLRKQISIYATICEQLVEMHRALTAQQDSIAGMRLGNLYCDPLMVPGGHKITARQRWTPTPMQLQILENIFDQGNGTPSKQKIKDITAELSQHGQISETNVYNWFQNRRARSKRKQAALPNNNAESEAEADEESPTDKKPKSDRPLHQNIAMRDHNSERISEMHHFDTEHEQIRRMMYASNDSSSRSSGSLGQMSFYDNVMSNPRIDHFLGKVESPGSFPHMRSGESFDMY
Procedure, shortened: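 For the binding signal, per-feature fluorescence intensity was read in arbitrary units on an Axon 4000B scanner. Before scanning, a 2% BSA-blocked custom Agilent array made double-stranded with Cy5-dUTP was washed after 1 h at 25 °C with 200 nM protein and 50 µM zinc acetate. The proteins were Ni–NTA-purified transcription factors with N-terminal polyhistidine and DsRed fusions, expressed in E. coli BL21-CodonPlus.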

| Sequence | binding signal |
| --- | --- |
| AGTTTAGTTAATTTTCAGTCCATTAGAGTCTTGTTTTAGTCGGAGTCACCTAGTGCAG | 4940 fluorescence intensity (a.u.) |
| TCAACTGGTTAATCACAGCAATTAACCAAGCTGGACATCACGGAGTCACCTAGTGCAG | 16900 fluorescence intensity (a.u.) |
| AAAATCAAATTGTTGCTAATCTACCATTAATTCCCTAGTACGGAGTCACCTAGTGCAG | 7710 fluorescence intensity (a.u.) |
| TCTAATTAAGATGAGATTCTATCTCAATTTGTGTTAGCACCGGAGTCACCTAGTGCAG | 23300 fluorescence intensity (a.u.) |
| TTAAATTTATAGTTTTGTGATATATCCCTAGTTTTGTTAACGGAGTCACCTAGTGCAG | 8610 fluorescence intensity (a.u.) |
| GGCGAACAAATTAAAATGCCTTTCGATTTCCCGTCTGGTTCGGAGTCACCTAGTGCAG | 3440 fluorescence intensity (a.u.) |
| ATATAAAATTAACGTGGATAATCACATTTTCCTACACATTCGGAGTCACCTAGTGCAG | 12100 fluorescence intensity (a.u.) |
| AGCAACAAAATTAACAACGGGTAACTCGTAAGTACGATCGCGGAGTCACCTAGTGCAG | 5400 fluorescence intensity (a.u.) |
| TTCATGGTAATCAGATTAATTTGGGCGTTAGATTTAAGAACGGAGTCACCTAGTGCAG | 6120 fluorescence intensity (a.u.) |
| AGCTTTAAATTTAAAGTTGAAAATTTAAATTTTAGCTAATCGGAGTCACCTAGTGCAG | 8170 fluorescence intensity (a.u.) |
| CCAAAATTAAAATCTTGGAACATAATCTTTAGAGTTGATTCGGAGTCACCTAGTGCAG | 4130 fluorescence intensity (a.u.) |
| TAGCTAATACTTAATTAATCATACACAAATGAGTTGTTCCCGGAGTCACCTAGTGCAG | 8720 fluorescence intensity (a.u.) |
| TTACGTCCTAATTAAGTGTCAACAAATGCTGCATTATTTACGGAGTCACCTAGTGCAG | 4500 fluorescence intensity (a.u.) |
| GATGAATGGACGGACAGGATTGGTTTGAGTTGTCGTGTTTCGGAGTCACCTAGTGCAG | 7430 fluorescence intensity (a.u.) |
| GTGTGCATGATTTTGTCGTTTGTTTTATGCATGCTGCGTTCGGAGTCACCTAGTGCAG | 4770 fluorescence intensity (a.u.) |
| ACAAAACAGTGATTTTGTAGTAGCGATTTCATGTTTGTTCCGGAGTCACCTAGTGCAG | 3280 fluorescence intensity (a.u.) |
| TCTAATTATCAATCACCTATCAAGACAAATCGGACGCTACCGGAGTCACCTAGTGCAG | 43900 fluorescence intensity (a.u.) |
| GACCTGATTAAGAGCTAGCAGCCAATCTCTTCCCCTTCTCCGGAGTCACCTAGTGCAG | 5450 fluorescence intensity (a.u.) |
| TTAAATGAATGATAAGTATAATTACTTATCCTTAGTCTATCGGAGTCACCTAGTGCAG | 18100 fluorescence intensity (a.u.) |
| CCATACATAAATAATCAATCTATTTCTATTTGTGTAACTTCGGAGTCACCTAGTGCAG | 11100 fluorescence intensity (a.u.) |
| TTCTCTAGCCCTAAATATGCCGAAGAATATTCCATGTCTCCGGAGTCACCTAGTGCAG | 64900 fluorescence intensity (a.u.) |
| AGTTGATTGAGAAAGGCAATGCCACCAGAAGTACCGGTACCGGAGTCACCTAGTGCAG | 21700 fluorescence intensity (a.u.) |
| TGACATGTAAATTAACATAGAGATATTTCTTAATTTGACACGGAGTCACCTAGTGCAG | 10300 fluorescence intensity (a.u.) |
| ATTAATCTATCATTAGCACATATTTACTGTAGCACCACATCGGAGTCACCTAGTGCAG | 7510 fluorescence intensity (a.u.) |
| ATGATATTTGTATAATTATTTTGAATAAGACGGATAGTCACGGAGTCACCTAGTGCAG | 4760 fluorescence intensity (a.u.) |
| TGGCTCTGATCCATCAATTAGGATTTGCCAGTGCCTCTCCCGGAGTCACCTAGTGCAG | 5390 fluorescence intensity (a.u.) |
| CTGGAACAAATTGGTTAGATCACCACGAAATACAACACAACGGAGTCACCTAGTGCAG | 11700 fluorescence intensity (a.u.) |

| Sequence | binding signal |
| --- | --- |
| GGTAAATTTTATGTAAATTAACCCGGGTATTATGGTTCTTCGGAGTCACCTAGTGCAG | 23200 fluorescence intensity (a.u.) |
| TCTAAATTTTATGTCCATTTACACGCTACAGTTTAATTTACGGAGTCACCTAGTGCAG | 5210 fluorescence intensity (a.u.) |
| GATTGTGATTGGTTGGAAAGAGAATATTGGTCGATAAGTTCGGAGTCACCTAGTGCAG | 30700 fluorescence intensity (a.u.) |
| GGGATTAGGATTGAGAAATGAATGAATGGTTAGGATTAAACGGAGTCACCTAGTGCAG | 8690 fluorescence intensity (a.u.) |
| TTGGGTTGGGTTGGGTGGTCCATTCTGTACGGTGCGCCGGCGGAGTCACCTAGTGCAG | 3920 fluorescence intensity (a.u.) |
| GCGCAGATTGGGGCGGTACCGCTGGGGTAAAACCGTATTTCGGAGTCACCTAGTGCAG | 3730 fluorescence intensity (a.u.) |
| GCTGTCAATCTGCTCTGTTCGTTAGGTTTGTACGATCCTTCGGAGTCACCTAGTGCAG | 3370 fluorescence intensity (a.u.) |
| CCTCGCAAATTAAAGGAGTCAATCTCTTGAAGGTATCTTCCGGAGTCACCTAGTGCAG | 7710 fluorescence intensity (a.u.) |
| CCTTATTAGTTCAATTATGCATGGAAAATCATGGCTGCACCGGAGTCACCTAGTGCAG | 7340 fluorescence intensity (a.u.) |
| TTGGGAAACGGAGGAAGTAATTAATTAGTCTTTGTGGAAACGGAGTCACCTAGTGCAG | 3790 fluorescence intensity (a.u.) |
| TCCTGAATTGGGCCTTAAATTAGGAATTCAATTGGAGGCCCGGAGTCACCTAGTGCAG | 10000 fluorescence intensity (a.u.) |
| ACTTGATGGAGAGGATGATTGTATTGGGTGGTCTAAGATTCGGAGTCACCTAGTGCAG | 31500 fluorescence intensity (a.u.) |
| GGTTAAATTGCCATGTAAGCGCCATGTCAGTGCGTGAGACCGGAGTCACCTAGTGCAG | 15200 fluorescence intensity (a.u.) |
| TTGTAAATTGTTACCCATCTATCATCCAATCAAATTTCAGCGGAGTCACCTAGTGCAG | 20400 fluorescence intensity (a.u.) |
| AATAATTTCTTTGTAACATAAAACCTCAGGATTATAAGTTCGGAGTCACCTAGTGCAG | 19900 fluorescence intensity (a.u.) |
| GCTTACAAGTCACTGTTAAATTTTAAAATTTAAAGCTTATCGGAGTCACCTAGTGCAG | 4350 fluorescence intensity (a.u.) |
| TTATCAATTTAACTATCTAATGGTTACTTCAGTCTGACGCCGGAGTCACCTAGTGCAG | 30700 fluorescence intensity (a.u.) |
| ACCAAATAGGCTAATTAGCAGTCCTAATGACATATTATAGCGGAGTCACCTAGTGCAG | 32600 fluorescence intensity (a.u.) |
| CAACTTGCAAATTGCAGAAGTTTCTTGTCATGATTGAAATCGGAGTCACCTAGTGCAG | 4520 fluorescence intensity (a.u.) |
| ACTAGATTGGCACTAGATTAGCAAATGTAATCTAATCTAGCGGAGTCACCTAGTGCAG | 46600 fluorescence intensity (a.u.) |
| GTGTCCTCAATTGAATTGACTCAATTCAATGGCTACCATACGGAGTCACCTAGTGCAG | 6900 fluorescence intensity (a.u.) |
| ATTGATGAGCTTACTTTTACTAATTTGTTGGTCGCAACAACGGAGTCACCTAGTGCAG | 10600 fluorescence intensity (a.u.) |
| AGAACTAGCATGATTTAGGACTAATTAGTAAATACTATTACGGAGTCACCTAGTGCAG | 13200 fluorescence intensity (a.u.) |
| CTAGATAGCTGAAATTGATGGATTTGGATAATCTAGATAGCGGAGTCACCTAGTGCAG | 33800 fluorescence intensity (a.u.) |
| AGGTTTGTCAGGTCAATCAAAACCCGCCGATTGTACTACACGGAGTCACCTAGTGCAG | 8470 fluorescence intensity (a.u.) |
| TTATAATTAATTTTCAAACATCCGATGTGATAGGGACTTACGGAGTCACCTAGTGCAG | 36000 fluorescence intensity (a.u.) |
| CTGTTGGCAATAATTAATTATATAATTACTACTACTTACTCGGAGTCACCTAGTGCAG | 26700 fluorescence intensity (a.u.) |
